Results as given in PubChem BioAssay AID540267 (National Center for Advancing Translational Sciences (NCATS), 2011).
The campaign covered roughly 340,000 compounds. About 530 (0.16%) were called active. Inconclusive means that the source gave no clear call. Such entries were picked first, then a sample of the others. No stated cut-off is given here; in the data, active means activity change below about -80%; inconclusive means between about -30% and that limit; inactive means weaker than that.

experiment: Small Molecules that selectively kill Giardia lamblia: qHTS; conditions: Giardia lamblia trophozoite viability; at 7.66 µM; hits give low values;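 further: parasites exposed to compound for two days anaerobically before the ATP read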
In short: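 Luminescent ATP signal served as the viability read-out, measured 15-30 min after adding ATP detection reagent to trophozoites that had been incubated with compounds for 48 hrs at 37 deg C anaerobically at 100 cells/well.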
On the % scale 0 is the no-effect control and ±100 the full control effect.

| Compound | activity change |
| --- | --- |
| O=c1c2[nH]c3ccc(F)cc3c2ncn1CCN1CCN(Cc2ccccc2)CC1 | inconclusive: -37.9% [inhibitor] |
| O=C(Nc1cccc(NC(=O)c2cccs2)c1)c1ccc([N+](=O)[O-])o1 | active: -89.4% |
| O=C(Nc1ccc2c(c1)OCO2)c1ccc([N+](=O)[O-])cc1[N+](=O)[O-] | inconclusive: -34.9% [inhibitor] |
| N#CC1=C(N)NC(SCc2ccc(Cl)cc2)=C(C#N)C12CCCCC2 | inactive: -20.1% |
| O=C(Nc1ccccc1)OCCOc1ccc(Br)cc1 | inactive: -1.43% |
| O=C(O)CSc1cc(NS(=O)(=O)c2cccc([N+](=O)[O-])c2)c2ccccc2c1O | active: -81% |
| O=C(Nc1nc2cc3c(cc2s1)OCO3)c1ccco1 | inconclusive: -44% [inhibitor] |
| CCC(C)(C)NC(=O)C(c1ccccc1F)N(Cc1ccco1)C(=O)Cn1nnc2ccccc21 (centres undefined) | inactive: -16.9% |
| OC(CN1CCN(c2ccc(C(F)(F)F)cn2)CC1)c1ccccc1 (centres undefined) | inconclusive: -32.8% [inhibitor] |
| CCc1ccc2nc(N=C(N)N)nc(C)c2c1 | inactive: 0.0118% |
| CCc1ccc(C(C(=O)NC2CCCC2)N(C(=O)c2csnn2)C2CC2)cc1 (centres undefined) | inactive: -10.3% |
| CCC(=O)Nc1ccc(C2C(=O)c3ccccc3C2=O)cc1 | active: -81.9% |
| Cc1cc(C(=O)NCc2ccco2)on1 | inconclusive: -37.6% [inhibitor] |
| CCCc1nnc(NC(=O)C2CCN(C(=O)c3ccco3)CC2)s1 | inconclusive: -30.6% [inhibitor] |
| Cc1ccc(S(=O)(=O)Nc2ccc(C(=O)NCc3cccnc3)cc2)cc1 | inconclusive: -35.3% [inhibitor] |
| O=c1c2ccccc2nc(/C=C/c2ccc([N+](=O)[O-])o2)n1CCCO | active: -87.6% |
| CCCCOc1ccc(-c2ncc(N)cn2)cc1 | inactive: -11% |
| CC(C)c1ccc2c(c1)CC[C@H]1[C@](C)(CN)CCC[C@]21C | inconclusive: -33.6% [inhibitor] |
| Cc1cc(C)cc(NC(=O)c2ccc(NC(=O)C3C4CC5OC(=O)C3C5C4)cc2)c1 (centres undefined) | inactive: 7.12% |
| CCOC(=O)Cn1c(=O)oc2cc(S(=O)(=O)N3CCN(c4ccccn4)CC3)ccc21 | inconclusive: -33.2% [inhibitor] |
| CC(C)C(OC(=O)c1nsc(Cl)c1Cl)C(=O)NCC1CCCO1 (centres undefined) | inconclusive: -40.4% [inhibitor] |
| CC(=O)Oc1ccc2c(=O)c(-c3ccccc3)coc2c1 | inconclusive: -39.8% [inhibitor] |
| C#CCOCCOCCOCCNc1nc(N2CCN(C(=O)Cn3cc(CCO)nn3)CC2)nc(N2CCN(C(=O)[C@H]([C@@H](C)CC)n3cc(CCCN=C(N)N)nn3)CC2)n1 | inconclusive: -31.5% [inhibitor] |
| COc1ccc(Cl)cc1NC(=O)CN(C)C(=O)CCc1nc2ccccc2c(=O)[nH]1 | inconclusive: -37.7% [inhibitor] |
| O=Nc1c2cc(-c3ccccc3)[nH]nc-2c2ccccc12 | inconclusive: -41% [inhibitor] |
| O=C(Nc1ccc2nc(-c3cccnc3)[nH]c2c1)c1ccco1 | inconclusive: -35.8% [inhibitor] |
| COc1ccc(-n2nc(C(=O)NCC(=O)NCCCN3CCN(C)CC3)c3ccccc3c2=O)cc1OC | inconclusive: -30.2% [inhibitor] |

| Compound | activity change |
| --- | --- |
| COc1ccc(C(=O)Nc2nncs2)c(OC)c1 | inconclusive: -32.2% [inhibitor] |
| CC(C)(C)OC(=O)N/N=C/c1ccc(C(=O)O)cc1 | inconclusive: -34.6% [inhibitor] |
| Cc1cc(-c2cc(C(=O)NCc3ccccc3)on2)nc(NC2CCCC2)n1 | inconclusive: -31.7% [inhibitor] |
| O=C(Nc1cccc(S(=O)(=O)N2CCCCC2)c1)C1=NN(c2ccccc2)C(=O)CC1 | inconclusive: -42% [inhibitor] |
| O=C(N/N=C/c1cccnc1)c1cc(-c2ccc(Br)cc2)nc2ccccc12 | inactive: 3.24% |
| c1ccc(-n2ncc3c(NC4CCCCCC4)ncnc32)cc1 | inconclusive: -34% [inhibitor] |
| Cc1cc(Oc2ccc(-c3nnc(-c4ccccc4)o3)cc2[N+](=O)[O-])ccc1Cl | inconclusive: -30.4% [inhibitor] |
| O=C(Nc1nc2ccccc2[nH]1)c1cc2ccccc2o1 | inconclusive: -33.2% [inhibitor] |
| O=C(CN1C(=O)c2ccccc2S1(=O)=O)c1ccc(F)c(F)c1 | inconclusive: -30.9% [inhibitor] |
| C=CCN(CC=C)C(=S)NC(=O)c1ccc(OC)cc1 | inactive: -12.1% |
| Cc1cc2ncn(/N=C/c3ccc([N+](=O)[O-])s3)c2cc1C | active: -98.5% |
| Cc1cccc(NC(=S)NCCc2ccccn2)c1 | inactive: 3.75% |
| C=CCN=C1S/C(=C\c2ccc(N(C)C)cc2)C(=O)N1CC=C | inconclusive: -34.9% [inhibitor] |
| O=C(CCC1CCCC1)Nc1cc(Cl)ccc1N1CCOCC1 | inconclusive: -31.4% [inhibitor] |
| CSc1nc2nc3c(cc2c(=O)n1-c1ccccc1C)COC(C)(C)C3 | inconclusive: -36.8% [inhibitor] |
| CC(C)(C)c1[nH]ncc1[N+](=O)[O-] | inconclusive: -33.4% [inhibitor] |
| CC(NC(=O)CN1CCc2ccccc21)c1ccccc1 (centres undefined) | inconclusive: -30.2% [inhibitor] |
| COc1ccc(NC(=O)CSCC(=O)N(C)CC(=O)Nc2cccc3ccccc23)cc1 | inconclusive: -31.7% [inhibitor] |
| CCN(CC)S(=O)(=O)c1ccc(NS(=O)(=O)c2ccc(O)c([N+](=O)[O-])c2)cc1 | inconclusive: -34.7% [inhibitor] |
| CCCCC12CN3CC(C)(CN(C1)C3c1ccc([N+](=O)[O-])o1)C2=O (centres undefined) | inconclusive: -74.7% [inhibitor] |
| COc1ccc(CC2(CO)CCN(Cc3cccc4nccnc34)CC2)cc1 | inactive: 1.16% |
| Cc1ccc(C)c(-c2cc(C(=O)N/N=C/c3cccnc3)c3ccccc3n2)c1 | inconclusive: -31.6% [inhibitor] |
| Cn1nnnc1N=N/C(=N/Nc1ccccc1)c1ccccc1 | inconclusive: -41.2% [inhibitor] |
| COc1ccc(-c2csc(NC(=S)NC(=O)c3cccs3)n2)cc1Br | inconclusive: -41.8% [inhibitor] |
| CC(C)(C)C(=O)N1CCN(c2ccc(NC(=O)c3ccc([N+](=O)[O-])o3)cc2)CC1 | active: -81.1% |
| O=C(C[n+]1cccc2ccccc21)c1ccc([N+](=O)[O-])cc1 | inactive: -1.26% |
| N#Cc1cnn2c(C(F)(F)F)cc(-c3ccccc3)nc12 | inconclusive: -30.3% [inhibitor] |

| Compound | activity change |
| --- | --- |
| Cc1noc(C)c1NC(=O)Nc1ccc2c(c1)C(=O)N([C@H](C)CO)C[C@H](C)[C@@H](CN(C)S(C)(=O)=O)O2 | inconclusive: -30.6% [inhibitor] |
| CN(Cc1ccc(C(C)(C)C)cc1)C(=O)c1ccc2c(c1)OCO2 | inconclusive: -37% [inhibitor] |
| COC(=O)c1ccc(Oc2cc(C)nc(-n3nc(C)cc3C)n2)cc1 | inactive: 2.4% |
| COc1ccc(CNC(=O)C(C)n2ccc3cc(S(=O)(=O)N4CCCCCC4)ccc32)cc1 (centres undefined) | inconclusive: -30.4% [inhibitor] |
| CCc1nc2ccccc2c(C(=O)OCC(=O)NCc2ccc3c(c2)OCO3)c1C | inactive: -5% |
| COc1ccc(-c2nc3c(=O)n(C)c(=O)nc-3n(C)n2)cc1 | active: -98.7% |
| COC(=O)c1ccccc1NC(=O)N1c2ccccc2Sc2ccccc21 | inconclusive: -51.1% [inhibitor] |
| COCCNCC(=O)N1c2ccccc2Sc2ccccc21 | inconclusive: -30.2% [inhibitor] |
| Cn1cc(C(=O)N2CCCCCC2)c(=O)c2cc(S(=O)(=O)N3CCCCC3)ccc21 | inconclusive: -41.2% [inhibitor] |
| Cc1ccc(NC(=O)c2ccc([N+](=O)[O-])s2)cc1S(=O)(=O)N1CCOCC1 | inconclusive: -57.4% [inhibitor] |
| O=C(CC1SCCNC1=O)Nc1cccc([N+](=O)[O-])c1 (centres undefined) | inconclusive: -30.7% [inhibitor] |
| O=C1N=C(N2CCCCC2)S/C1=C\c1ccc(Br)cc1 | inconclusive: -48.1% [inhibitor] |
| C=CCNc1nc(C(=O)OCC(=O)Nc2ccccc2C(F)(F)F)cs1 | inconclusive: -37.7% [inhibitor] |
| COc1ccc(-c2noc(CNC(=O)c3ccoc3C)n2)cc1 | inconclusive: -34.1% [inhibitor] |
| O=S1(=O)CCOCCN1Cc1ccccc1 | inconclusive: -38.4% [inhibitor] |
| O=C(Nc1ccccc1Oc1cccnc1)C1CCCN(Cc2cccc(Cl)c2)C1 (centres undefined) | inactive: -20.7% |
| COc1ccc(NC(=O)N2CCc3ccccc32)cc1 | inconclusive: -47.7% [inhibitor] |
| COc1cc(/C=C2/SC(=Nc3ccc(O)cc3)NC2=O)ccc1O | inactive: 0.676% |
| CCCC(=O)N1CCN(c2nc3ccc(CC)cc3s2)CC1 | inconclusive: -36.2% [inhibitor] |
| CCOC(=O)c1[nH]c(C)c(C(=O)OCC(=O)NC(C)c2ccc(F)cc2)c1C (centres undefined) | inactive: 1.22% |
| O=C(CCOc1ccccc1)Nc1ccnn1C1CCN(CCc2ccccc2)CC1 | inactive: 21.5% |
| COc1ccc(N2CCCC2=N)c(OC)c1 | inactive: -28.6% |
| CC(=O)Cn1ncc(N(C)Cc2ccccc2)c(Cl)c1=O | inactive: 2% |
| COc1ccccc1-n1cnc2cc(NCc3ccccc3O)ccc21 | inactive: -11.3% |
| CCOc1cc(C(=S)N2CCOCC2)ccc1OS(=O)(=O)c1ccccc1[N+](=O)[O-] | inconclusive: -33% [inhibitor] |
